Article PMC8249609
These are yes or no findings as the source states them, for the method shown. For some assays here: Binding seen in cells or lysates may run through a third protein. Some binding calls cover weakened binding; strength is not graded here. For some assays here: Sequences can lack the tags named with a protein.

Chains of the proteins cited; added tags and fusions are not shown. Lines headed by an entry give the natural chain unless they say otherwise; changes in a name come on top. Residues count along the entry.
UniProt Q9R0G6: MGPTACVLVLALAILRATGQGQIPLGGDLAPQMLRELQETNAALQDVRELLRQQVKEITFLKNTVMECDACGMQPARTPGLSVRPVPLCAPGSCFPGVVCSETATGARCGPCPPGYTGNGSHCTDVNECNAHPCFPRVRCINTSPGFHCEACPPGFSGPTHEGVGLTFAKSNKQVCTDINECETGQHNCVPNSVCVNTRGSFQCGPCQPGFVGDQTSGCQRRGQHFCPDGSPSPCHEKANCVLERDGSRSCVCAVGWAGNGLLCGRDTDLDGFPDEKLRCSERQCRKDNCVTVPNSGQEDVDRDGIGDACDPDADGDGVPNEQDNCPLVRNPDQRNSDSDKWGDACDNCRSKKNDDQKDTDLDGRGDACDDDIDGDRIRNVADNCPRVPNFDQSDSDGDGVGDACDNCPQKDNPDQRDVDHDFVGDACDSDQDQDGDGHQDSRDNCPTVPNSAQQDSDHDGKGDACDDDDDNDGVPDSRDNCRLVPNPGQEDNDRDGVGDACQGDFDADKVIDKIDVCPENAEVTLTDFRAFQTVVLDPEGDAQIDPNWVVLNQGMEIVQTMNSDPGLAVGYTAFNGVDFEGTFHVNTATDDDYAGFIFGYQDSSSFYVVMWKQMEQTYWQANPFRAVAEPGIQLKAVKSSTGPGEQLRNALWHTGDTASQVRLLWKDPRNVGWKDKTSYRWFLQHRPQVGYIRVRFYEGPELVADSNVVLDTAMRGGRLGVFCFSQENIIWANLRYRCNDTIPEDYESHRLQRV
MBP-fusion protein of the COMP C-terminus: residues 521-755 of Q9R0G6
UniProt P29754: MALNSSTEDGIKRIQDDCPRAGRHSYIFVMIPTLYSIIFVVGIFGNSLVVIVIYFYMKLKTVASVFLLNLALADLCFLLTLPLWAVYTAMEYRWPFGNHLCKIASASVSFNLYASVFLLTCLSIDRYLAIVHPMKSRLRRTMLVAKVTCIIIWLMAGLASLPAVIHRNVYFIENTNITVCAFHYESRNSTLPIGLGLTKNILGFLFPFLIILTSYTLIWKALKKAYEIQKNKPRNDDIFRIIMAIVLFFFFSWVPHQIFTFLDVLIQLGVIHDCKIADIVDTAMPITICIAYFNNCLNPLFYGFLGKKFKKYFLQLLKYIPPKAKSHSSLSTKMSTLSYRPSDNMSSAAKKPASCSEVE
N-terminus of mouse AT1a receptor (aa 1-27) in pBIND: residues 1-27 of P29754
transmembrane region 1-3 of mouse AT1a receptor (aa 28-142) in pBIND: residues 28-142 of P29754
transmembrane region 4-7 of mouse AT1a receptor (aa 143-299) in pBIND: residues 143-299 of P29754
C-terminus of mouse AT1a receptor (aa 300-359) in pBIND: residues 300-359 of P29754
UniProt P29755: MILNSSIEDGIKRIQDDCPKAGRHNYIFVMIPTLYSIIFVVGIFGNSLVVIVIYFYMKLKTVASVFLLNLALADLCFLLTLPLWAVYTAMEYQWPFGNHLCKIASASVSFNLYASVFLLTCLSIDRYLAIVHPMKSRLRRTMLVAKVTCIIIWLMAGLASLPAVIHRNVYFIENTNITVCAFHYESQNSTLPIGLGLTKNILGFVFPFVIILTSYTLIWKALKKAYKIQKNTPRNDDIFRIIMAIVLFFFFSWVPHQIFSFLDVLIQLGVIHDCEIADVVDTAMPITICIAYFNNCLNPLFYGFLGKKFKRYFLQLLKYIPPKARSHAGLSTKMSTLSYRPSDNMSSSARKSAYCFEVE
UniProt P30556, residues 1-318: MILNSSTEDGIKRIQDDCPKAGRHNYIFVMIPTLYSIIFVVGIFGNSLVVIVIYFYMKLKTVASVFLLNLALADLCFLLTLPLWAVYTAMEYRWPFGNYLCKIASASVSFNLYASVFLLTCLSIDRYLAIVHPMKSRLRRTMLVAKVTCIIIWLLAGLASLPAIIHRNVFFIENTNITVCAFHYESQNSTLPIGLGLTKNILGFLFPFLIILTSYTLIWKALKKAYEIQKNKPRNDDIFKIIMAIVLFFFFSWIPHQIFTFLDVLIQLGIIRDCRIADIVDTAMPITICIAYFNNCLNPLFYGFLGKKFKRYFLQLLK
UniProt P07996, residues 19-1170: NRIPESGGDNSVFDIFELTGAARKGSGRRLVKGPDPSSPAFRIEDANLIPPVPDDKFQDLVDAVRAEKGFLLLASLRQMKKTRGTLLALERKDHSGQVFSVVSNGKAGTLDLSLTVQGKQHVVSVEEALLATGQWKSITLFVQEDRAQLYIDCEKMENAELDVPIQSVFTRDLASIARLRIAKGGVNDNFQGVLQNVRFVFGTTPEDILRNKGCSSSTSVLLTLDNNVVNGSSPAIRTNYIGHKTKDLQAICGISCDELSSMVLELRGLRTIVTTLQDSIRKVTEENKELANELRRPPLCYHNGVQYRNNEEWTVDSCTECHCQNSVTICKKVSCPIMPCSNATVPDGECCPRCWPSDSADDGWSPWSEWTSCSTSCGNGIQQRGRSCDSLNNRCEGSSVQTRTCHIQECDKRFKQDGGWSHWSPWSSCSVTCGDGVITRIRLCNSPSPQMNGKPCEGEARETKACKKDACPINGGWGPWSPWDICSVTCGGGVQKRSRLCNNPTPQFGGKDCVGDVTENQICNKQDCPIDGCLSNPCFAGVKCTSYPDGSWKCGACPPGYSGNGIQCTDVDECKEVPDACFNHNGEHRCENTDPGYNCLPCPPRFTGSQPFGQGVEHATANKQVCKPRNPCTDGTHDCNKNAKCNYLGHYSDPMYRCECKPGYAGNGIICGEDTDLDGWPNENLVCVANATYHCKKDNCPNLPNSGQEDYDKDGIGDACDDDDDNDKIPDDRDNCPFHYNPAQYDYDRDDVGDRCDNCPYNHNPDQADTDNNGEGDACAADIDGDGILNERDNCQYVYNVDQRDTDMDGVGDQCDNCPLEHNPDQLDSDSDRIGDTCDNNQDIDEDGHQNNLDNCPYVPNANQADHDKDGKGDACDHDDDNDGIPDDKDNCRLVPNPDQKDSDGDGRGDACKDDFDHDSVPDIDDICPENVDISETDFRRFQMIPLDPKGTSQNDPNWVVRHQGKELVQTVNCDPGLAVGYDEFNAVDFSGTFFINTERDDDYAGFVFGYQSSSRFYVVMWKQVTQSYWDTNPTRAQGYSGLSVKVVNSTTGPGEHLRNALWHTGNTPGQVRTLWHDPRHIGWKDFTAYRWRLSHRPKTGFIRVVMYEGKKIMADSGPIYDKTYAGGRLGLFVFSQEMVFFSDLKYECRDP

What was measured:
[1] = biological target: cartilage oligomeric matrix protein, endogenous in mouse aorta (mouse (endogenous in suprarenal aorta)) (UniProt Q9R0G6); assay: co-IP; suprarenal aorta lysates of C57BL/6 J mice; anti-AT1 or anti-COMP antibody or control IgG, Protein A/G agarose beads; western blot
[2] = biological target: N-terminus of mouse AT1a receptor (aa 1-27) in pBIND (mouse) (UniProt P29754); assay: two-hybrid; mammalian two-hybrid in COS-7 cells: AT1a domains in pBIND, COMP or its domains in pACT, reporter pG5luc; dual-luciferase assay after 48 h
[3] = biological target: transmembrane region 1-3 of mouse AT1a receptor (aa 28-142) in pBIND (mouse) (UniProt P29754); assay: as above
[4] = biological target: transmembrane region 4-7 of mouse AT1a receptor (aa 143-299) in pBIND (mouse) (UniProt P29754); assay: as above
[5] = biological target: C-terminus of mouse AT1a receptor (aa 300-359) in pBIND (mouse) (UniProt P29754); assay: as above
[6] = biological target: MBP-fusion protein of the COMP N-terminus (mouse) (UniProt Q9R0G6); assay: pull-down; MBP fusion proteins of COMP domains and GST-fused AT1a N-terminus, equimolar, 4 °C 2 h; amylose resin; western blot with anti-GST; both purified
[7] = biological target: MBP-fusion protein of the COMP C-terminus (mouse) (UniProt Q9R0G6); assay: as above
[8] = biological target: MBP-fusion protein of the COMP Type III repeat (mouse) (UniProt Q9R0G6); assay: as above
[9] = biological target: AT1 receptor (AT1a), endogenous in mouse aorta (mouse (endogenous in suprarenal aorta)) (UniProt P29754); assay: proximity ligation; frozen cross-sections of mouse suprarenal aortas; anti-COMP (rat) and anti-AT1 (rabbit) antibodies, Duolink In Situ Red Kit; IgGs as controls
[10] = biological target: AT1b receptor, endogenous in AT1a-/- mouse aorta (mouse (endogenous in AT1a-/- aorta)) (UniProt P29755); assay: co-IP; AT1a-/- aortic samples; anti-AT1 or anti-COMP antibody, reciprocal; western blot
[11] = biological target: AT1 receptor (AT1a), endogenous in mouse aorta (mouse (endogenous in suprarenal aorta)) (UniProt P29754); assay: co-IP; suprarenal aorta lysates of C57BL/6 J mice; anti-AT1 or anti-COMP antibody or control IgG, Protein A/G agarose beads; western blot
[12] = biological target: T1, AT2 receptor with a TC-tag inserted into extracellular loop 1 (UniProt P50052); assay: FRET or BRET; intermolecular FlAsH-BRET, saturation: HEK293T cells co-transfected with a fixed amount of COMP-RLuc plasmid and increasing amounts of TC-tagged receptor plasmid; FlAsH labelling; coelenterazine-h
T1 sequence (chain, FlAsH label on the TC-tag): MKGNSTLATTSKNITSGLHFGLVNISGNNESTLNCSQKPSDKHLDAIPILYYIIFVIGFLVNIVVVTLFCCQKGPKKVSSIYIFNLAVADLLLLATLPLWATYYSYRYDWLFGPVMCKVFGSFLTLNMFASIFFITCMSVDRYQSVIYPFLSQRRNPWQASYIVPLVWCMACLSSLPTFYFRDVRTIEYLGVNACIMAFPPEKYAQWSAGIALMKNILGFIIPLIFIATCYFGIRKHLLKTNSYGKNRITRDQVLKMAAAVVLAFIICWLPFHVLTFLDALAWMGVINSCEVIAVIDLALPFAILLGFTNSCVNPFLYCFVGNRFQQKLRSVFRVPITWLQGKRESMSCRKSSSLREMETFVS

[13] = biological target: human AT1 receptor with a TC-tag inserted at G97-N98 in extracellular loop 1 (human) (UniProt P30556); assay: as above
[14] = biological target: Flag-tagged mouse AT1a receptor (mouse) (UniProt P29754); assay: co-IP; Flag-AT1a-overexpressing COS-7 cells incubated with purified COMP protein for 30 min; lysates precipitated with anti-Flag antibody or control IgG; COMP by western blot; only the binder purified
[15] = biological target: AT1 receptor, residues 1-318, with N-terminal Flag-tag and BRIL (Flag-BRIL-AT1) (human (by the printed RefSeq NM_000685.4)) (UniProt P30556); assay: SPR; BiaCore 8 K; AT1 amine-coupled to a CM5 chip (~4500 RU); analyte in two-fold dilutions (COMP 0.43–110 nM), 120 s association, 200 s dissociation; 10 mM HEPES pH 7.4, 150 mM NaCl, 0.05% P20, 0.01% DDM, 0.002% CHS; 1:1 binding model; both purified

AT1 receptor (AT1a), endogenous in mouse aorta (from UniProt P29754 1-359)
binding [1]: binds

C-terminus of mouse COMP (aa 521-755) in pACT (from UniProt Q9R0G6 521-755) (domain or fragment)
binding [2]: no binding

COMP fused into the pACT vector (from UniProt Q9R0G6 1-755)
binding [3]: no binding | binding [4]: no binding | binding [5]: no binding | binding [2]: binds

EGF1 of mouse COMP (aa 85-124) in pACT (from UniProt Q9R0G6 85-124) (domain or fragment)
binding [2]: no binding

EGF1-2 of mouse COMP (aa 85-177) in pACT (from UniProt Q9R0G6 85-177) (domain or fragment)
binding [2]: binds

EGF1-3 of mouse COMP (aa 85-220) in pACT (from UniProt Q9R0G6 85-220) (domain or fragment)
binding [2]: binds

EGF2 of mouse COMP (aa 125-177) in pACT (from UniProt Q9R0G6 125-177) (domain or fragment)
binding [2]: binds

EGF repeat domain of mouse COMP (aa 84-261) in pACT (from UniProt Q9R0G6 84-261) (domain or fragment)
binding [2]: binds

GST-fused N-terminus of mouse AT1a receptor (aa 1-27) (from UniProt P29754 1-27) (domain or fragment)
binding [6]: no binding | binding [7]: no binding | binding [8]: no binding

N-terminus of mouse COMP (aa 20-83) in pACT (from UniProt Q9R0G6 20-83) (domain or fragment)
binding [2]: no binding

cartilage oligomeric matrix protein, endogenous in mouse aorta (from UniProt Q9R0G6 20-755)
binding [9]: binds | binding [10]: no binding | binding [11]: binds

mouse COMP fused with the modified Renilla luciferase at the C-terminus (from UniProt Q9R0G6 20-755)
binding [12]: no binding | binding [13]: binds

purified COMP protein (as in ref. 75) (from UniProt Q9R0G6 20-755)
binding [14]: binds

thrombospondin-1 (from UniProt P07996 19-1170)
binding [15]: no binding

type III repeat domain of mouse COMP (aa 266-520) in pACT (from UniProt Q9R0G6 266-520) (domain or fragment)
binding [2]: no binding
